# Reference: the supplement of paper PMC8728848
# This is one part of the list.
# B1: DBA (Dolichos biflorus) (protein)
# chain: ANIQSFSFKNFNSPSFILQGDATVSSGKLQLTKVKENGFPLRFPSGRAFYSSPIQIYDKFTGAVASWATSFTVKISAPSKASFADGIAFALVPVGSEPRRNGGYLGVFDSDVYNNSAQTVAVEFDTLSNSGWDPSMKHIGIDVNSIKSIATVSWDLANGENAEILITYNAATSLLVVSLVHPSRRTSYILSERVDITNELPEYVGVGFSATTGLSEGYIETHDVLSWSFASRLPDDSTAEPLDLARYLVRNVL
# Experiments:
# Experiment in all cases: glycan array binding signal (z-score within array); higher = stronger binding
# Conditions in all cases: glycan notation: IUPAC condensed, linker removed
# [1] = biological target: Gal(a1-4)Gal(b1-4)GlcNAc(b1-3)Gal(b1-4)Glc
# Method in brief: (§1)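 From the Consortium for Functional Glycomics database, 3228 arrays were curated, keeping only those whose protein sequence was available. Binding is given as a within-array Z-score averaged across arrays sharing a protein sequence and across linkers. Negative Z-scores can be read as non-binding.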
# [2] = biological target: Gal(a1-4)GlcNAc
# Method in brief: as §1
# [3] = biological target: Gal(a1-6)Glc
# Method in brief: as §1
# [4] = biological target: Gal(b1-2)Gal
# Method in brief: as §1
# [5] = biological target: Gal(b1-3)Gal
# Method in brief: as §1
# [6] = biological target: Gal(b1-3)Gal(b1-4)GlcNAc
# Method in brief: as §1
# [7] = biological target: Gal(b1-3)GalNAc
# Method in brief: as §1
# [8] = biological target: Gal(b1-3)GalNAc(a1-3)[Fuc(a1-2)]Gal(b1-4)Glc
# Method in brief: as §1
# [9] = biological target: Gal(b1-3)GalNAc(a1-3)[Fuc(a1-2)]Gal(b1-4)GlcNAc
# Method in brief: as §1
# [10] = biological target: Gal(b1-3)GalNAc(b1-3)Gal
# Method in brief: as §1
# [11] = biological target: Gal(b1-3)GalNAc(b1-3)Gal(a1-4)Gal(b1-4)Glc
# Method in brief: as §1
# [12] = biological target: Gal(b1-3)GalNAc(b1-4)Gal(b1-4)Glc
# Method in brief: as §1
# [13] = biological target: Gal(b1-3)GalNAc(b1-4)[Neu5Ac(a2-3)]Gal(b1-4)Glc
# Method in brief: as §1
# [14] = biological target: Gal(b1-3)GlcNAc
# Method in brief: as §1
# [15] = biological target: Gal(b1-3)GlcNAc(a1-3)Gal(b1-4)GlcNAc
# Method in brief: as §1
# [16] = biological target: Gal(b1-3)GlcNAc(a1-6)Gal(b1-4)GlcNAc
# Method in brief: as §1
# [17] = biological target: Gal(b1-3)GlcNAc(b1-2)Man
# Method in brief: as §1
# [18] = biological target: Gal(b1-3)GlcNAc(b1-2)Man(a1-3)[Gal(b1-3)GlcNAc(b1-2)Man(a1-6)]Man(b1-4)GlcNAc(b1-4)GlcNAc
# Method in brief: as §1
# [19] = biological target: Gal(b1-3)GlcNAc(b1-2)Man(a1-3)[Gal(b1-3)GlcNAc(b1-2)Man(a1-6)]Man(b1-4)GlcNAc(b1-4)[Fuc(a1-6)]GlcNAc
# Method in brief: as §1
# [20] = biological target: Gal(b1-3)GlcNAc(b1-2)Man(a1-3)[GlcNAc(b1-4)][Gal(b1-3)GlcNAc(b1-2)Man(a1-6)]Man(b1-4)GlcNAc(b1-4)GlcNAc
# Method in brief: as §1
# [21] = biological target: Gal(b1-3)GlcNAc(b1-2)[Gal(b1-3)GlcNAc(b1-6)]Man(a1-6)[Gal(b1-3)GlcNAc(b1-2)Man(a1-3)]Man(b1-4)GlcNAc(b1-4)GlcNAc
# Method in brief: as §1
# [22] = biological target: Gal(b1-3)GlcNAc(b1-3)Gal(b1-3)GlcNAc
# Method in brief: as §1
# [23] = biological target: Gal(b1-3)GlcNAc(b1-3)Gal(b1-4)Glc
# Method in brief: as §1
# [24] = biological target: Gal(b1-3)GlcNAc(b1-3)Gal(b1-4)GlcNAc
# Method in brief: as §1
# [25] = biological target: Gal(b1-3)GlcNAc(b1-3)Gal(b1-4)GlcNAc(b1-2)Man(a1-3)[Gal(b1-3)GlcNAc(b1-3)Gal(b1-4)GlcNAc(b1-2)Man(a1-6)]Man(b1-4)GlcNAc(b1-4)GlcNAc
# Method in brief: as §1
# [26] = biological target: Gal(b1-3)GlcNAc(b1-3)Gal(b1-4)GlcNAc(b1-2)[Gal(b1-3)GlcNAc(b1-3)Gal(b1-4)GlcNAc(b1-6)]Man(a1-6)[Gal(b1-3)GlcNAc(b1-3)Gal(b1-4)GlcNAc(b1-2)Man(a1-3)]Man(b1-4)GlcNAc(b1-4)[Fuc(a1-6)]GlcNAc
# Method in brief: as §1
# [27] = biological target: Gal(b1-3)GlcNAc(b1-3)Gal(b1-4)GlcNAc(b1-3)Gal(b1-4)GlcNAc(b1-2)[Gal(b1-3)GlcNAc(b1-3)Gal(b1-4)GlcNAc(b1-3)Gal(b1-4)GlcNAc(b1-6)]Man(a1-6)[Gal(b1-3)GlcNAc(b1-3)Gal(b1-4)GlcNAc(b1-3)Gal(b1-4)GlcNAc(b1-2)Man(a1-3)]Man(b1-4)GlcNAc(b1-4)[Fuc(a1-6)]GlcNAc
# Method in brief: as §1
# [28] = biological target: Gal(b1-3)GlcNAc(b1-3)Gal(b1-4)GlcNAc(b1-6)[Gal(b1-3)GlcNAc(b1-3)]Gal(b1-4)Glc
# Method in brief: as §1
# [29] = biological target: Gal(b1-3)GlcNAc(b1-3)Gal(b1-4)[Fuc(a1-3)]GlcNAc
# Method in brief: as §1
# [30] = biological target: Gal(b1-3)GlcNAc(b1-3)Gal(b1-4)[Fuc(a1-3)]GlcNAc(b1-6)[Gal(b1-3)GlcNAc(b1-3)]Gal(b1-4)Glc
# Method in brief: as §1
# [31] = biological target: Gal(b1-3)GlcNAc(b1-3)GalNAc
# Method in brief: as §1
# [32] = biological target: Gal(b1-3)GlcNAc(b1-6)Gal(b1-4)GlcNAc
# Method in brief: as §1
# [33] = biological target: Gal(b1-3)GlcNAc(b1-6)GalNAc
# Method in brief: as §1
# [34] = biological target: Gal(b1-3)GlcNAc(b1-6)[Gal(b1-3)]GalNAc
# Method in brief: as §1
# [35] = biological target: Gal(b1-3)GlcNAc6S
# Method in brief: as §1
# [36] = biological target: Gal(b1-3)[Fuc(a1-4)]GlcNAc
# Method in brief: as §1
# [37] = biological target: Gal(b1-3)[Fuc(a1-4)]GlcNAc(b1-2)Man
# Method in brief: as §1
binder,measurement,setting,value
B1,glycan array binding signal (z-score),[1],-0.118
same,glycan array binding signal (z-score),[2],-0.126
same,glycan array binding signal (z-score),[3],-0.132
same,glycan array binding signal (z-score),[4],-0.113
same,glycan array binding signal (z-score),[5],-0.143
same,glycan array binding signal (z-score),[6],-0.119
same,glycan array binding signal (z-score),[7],-0.108
same,glycan array binding signal (z-score),[8],-0.111
same,glycan array binding signal (z-score),[9],-0.079
same,glycan array binding signal (z-score),[10],-0.131
same,glycan array binding signal (z-score),[11],-0.115
same,glycan array binding signal (z-score),[12],-0.098
same,glycan array binding signal (z-score),[13],-0.13
same,glycan array binding signal (z-score),[14],-0.126
same,glycan array binding signal (z-score),[15],-0.178
same,glycan array binding signal (z-score),[16],-0.113
same,glycan array binding signal (z-score),[17],-0.095
same,glycan array binding signal (z-score),[18],-0.068
same,glycan array binding signal (z-score),[19],-0.073
same,glycan array binding signal (z-score),[20],-0.073
same,glycan array binding signal (z-score),[21],-0.089
same,glycan array binding signal (z-score),[22],-0.115
same,glycan array binding signal (z-score),[23],-0.135
same,glycan array binding signal (z-score),[24],-0.086
same,glycan array binding signal (z-score),[25],-0.1
same,glycan array binding signal (z-score),[26],-0.106
same,glycan array binding signal (z-score),[27],0.071
same,glycan array binding signal (z-score),[28],-0.116
same,glycan array binding signal (z-score),[29],-0.107
same,glycan array binding signal (z-score),[30],-0.1
same,glycan array binding signal (z-score),[31],-0.126
same,glycan array binding signal (z-score),[32],-0.131
same,glycan array binding signal (z-score),[33],-0.19
same,glycan array binding signal (z-score),[34],-0.089
same,glycan array binding signal (z-score),[35],-0.12
same,glycan array binding signal (z-score),[36],-0.116
same,glycan array binding signal (z-score),[37],-0.1
